# Test results taken from publication PMC8875924.
# By UniProt entry, the sequences of proteins in these tests, tags left out.
# UniProt Q9HAU5: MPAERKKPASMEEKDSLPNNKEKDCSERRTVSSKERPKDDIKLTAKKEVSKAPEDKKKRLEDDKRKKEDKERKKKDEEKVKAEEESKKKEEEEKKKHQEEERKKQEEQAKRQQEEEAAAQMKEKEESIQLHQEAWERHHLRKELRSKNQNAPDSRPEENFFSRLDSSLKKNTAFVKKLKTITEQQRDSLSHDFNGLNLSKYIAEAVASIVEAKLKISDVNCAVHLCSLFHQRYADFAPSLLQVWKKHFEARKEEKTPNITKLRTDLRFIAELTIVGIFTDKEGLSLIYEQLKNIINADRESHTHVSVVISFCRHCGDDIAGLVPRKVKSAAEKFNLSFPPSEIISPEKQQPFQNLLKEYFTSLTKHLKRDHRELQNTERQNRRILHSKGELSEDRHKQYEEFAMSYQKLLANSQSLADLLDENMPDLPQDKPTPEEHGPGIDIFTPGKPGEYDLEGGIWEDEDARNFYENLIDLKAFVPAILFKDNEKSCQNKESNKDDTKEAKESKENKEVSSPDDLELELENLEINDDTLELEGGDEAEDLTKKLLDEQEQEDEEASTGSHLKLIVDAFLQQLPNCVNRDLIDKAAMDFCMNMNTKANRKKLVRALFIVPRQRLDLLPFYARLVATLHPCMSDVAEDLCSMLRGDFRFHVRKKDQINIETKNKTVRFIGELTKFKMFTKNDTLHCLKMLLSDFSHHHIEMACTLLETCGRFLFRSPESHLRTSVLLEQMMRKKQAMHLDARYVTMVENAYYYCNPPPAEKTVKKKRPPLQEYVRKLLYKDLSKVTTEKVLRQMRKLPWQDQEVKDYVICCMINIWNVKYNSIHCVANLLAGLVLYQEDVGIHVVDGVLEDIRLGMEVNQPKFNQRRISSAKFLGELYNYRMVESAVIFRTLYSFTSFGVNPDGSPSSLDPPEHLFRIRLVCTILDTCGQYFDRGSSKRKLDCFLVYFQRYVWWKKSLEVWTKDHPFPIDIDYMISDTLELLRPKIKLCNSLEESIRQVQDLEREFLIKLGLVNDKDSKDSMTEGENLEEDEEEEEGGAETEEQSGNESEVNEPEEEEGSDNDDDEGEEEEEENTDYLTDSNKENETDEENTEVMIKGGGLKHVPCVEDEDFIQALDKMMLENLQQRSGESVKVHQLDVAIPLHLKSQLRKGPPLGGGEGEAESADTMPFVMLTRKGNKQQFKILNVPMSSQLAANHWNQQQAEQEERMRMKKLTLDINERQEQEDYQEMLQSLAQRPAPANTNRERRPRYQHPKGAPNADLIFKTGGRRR
# These are yes or no findings as the source states them, for the method shown. Binding seen in cells or lysates may run through a third protein. Some results given as binding are weak or reduced against the parent protein; the word gives no strength. Sequences can lack the tags named with a protein.
# T1: GST-UPF1 (wild type) (human) (UniProt Q92900)
# T1 sequence: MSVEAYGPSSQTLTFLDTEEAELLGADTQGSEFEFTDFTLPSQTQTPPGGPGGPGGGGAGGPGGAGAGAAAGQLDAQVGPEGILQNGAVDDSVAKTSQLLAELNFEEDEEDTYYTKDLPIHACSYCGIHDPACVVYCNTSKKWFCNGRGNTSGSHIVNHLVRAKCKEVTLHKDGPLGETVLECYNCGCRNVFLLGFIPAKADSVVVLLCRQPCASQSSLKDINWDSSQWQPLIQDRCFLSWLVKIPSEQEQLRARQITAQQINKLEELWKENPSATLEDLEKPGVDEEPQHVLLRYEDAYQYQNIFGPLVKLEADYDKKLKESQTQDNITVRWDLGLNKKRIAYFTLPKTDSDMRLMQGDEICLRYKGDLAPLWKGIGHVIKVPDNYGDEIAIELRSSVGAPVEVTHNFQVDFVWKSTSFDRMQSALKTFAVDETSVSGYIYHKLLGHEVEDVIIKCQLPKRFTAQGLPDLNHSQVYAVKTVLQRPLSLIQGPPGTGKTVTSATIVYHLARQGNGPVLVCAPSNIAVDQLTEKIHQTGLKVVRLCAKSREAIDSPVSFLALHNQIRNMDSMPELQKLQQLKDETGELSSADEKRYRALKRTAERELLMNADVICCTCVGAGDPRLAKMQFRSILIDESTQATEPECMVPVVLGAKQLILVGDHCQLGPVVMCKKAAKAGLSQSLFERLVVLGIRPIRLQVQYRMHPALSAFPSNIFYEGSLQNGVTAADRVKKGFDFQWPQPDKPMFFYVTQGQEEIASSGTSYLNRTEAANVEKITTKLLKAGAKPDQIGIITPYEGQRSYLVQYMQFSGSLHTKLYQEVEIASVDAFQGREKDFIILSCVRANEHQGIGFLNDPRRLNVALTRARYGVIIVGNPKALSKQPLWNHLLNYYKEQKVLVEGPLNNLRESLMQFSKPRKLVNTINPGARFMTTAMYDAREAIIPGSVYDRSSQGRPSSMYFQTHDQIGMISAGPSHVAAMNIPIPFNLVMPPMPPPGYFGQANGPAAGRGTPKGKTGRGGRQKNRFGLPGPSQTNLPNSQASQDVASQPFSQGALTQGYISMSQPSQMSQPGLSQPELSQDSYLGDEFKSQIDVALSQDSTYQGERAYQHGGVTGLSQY
# T2: His-UPF3B (UniProt Q9BZI7)
# T2 sequence: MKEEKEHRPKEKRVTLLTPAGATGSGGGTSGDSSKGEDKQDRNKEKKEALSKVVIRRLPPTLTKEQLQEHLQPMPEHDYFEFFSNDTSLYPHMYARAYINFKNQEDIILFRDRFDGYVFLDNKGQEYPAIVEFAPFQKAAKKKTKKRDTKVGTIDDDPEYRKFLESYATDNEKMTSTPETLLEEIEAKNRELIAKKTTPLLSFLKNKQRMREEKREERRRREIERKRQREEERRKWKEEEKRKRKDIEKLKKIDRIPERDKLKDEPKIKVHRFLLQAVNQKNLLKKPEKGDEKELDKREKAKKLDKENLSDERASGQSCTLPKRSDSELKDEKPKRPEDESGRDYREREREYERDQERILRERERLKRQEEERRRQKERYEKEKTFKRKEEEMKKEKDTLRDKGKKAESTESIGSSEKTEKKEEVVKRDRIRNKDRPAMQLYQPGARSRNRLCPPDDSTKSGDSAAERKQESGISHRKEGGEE
# T3: EYFP-UPF1 (human) (UniProt Q92900)
# T3 sequence: T1 sequence
# T4: GST-Rex (HTLV-1) (UniProt P0C205)
# T4 sequence: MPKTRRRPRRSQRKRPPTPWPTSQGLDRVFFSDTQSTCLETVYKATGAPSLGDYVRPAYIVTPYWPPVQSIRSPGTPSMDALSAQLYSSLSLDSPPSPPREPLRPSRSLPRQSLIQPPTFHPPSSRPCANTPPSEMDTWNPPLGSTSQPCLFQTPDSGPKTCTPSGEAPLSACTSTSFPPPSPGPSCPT
# B1: FLAG-Rex (wild-type p27Rex of HTLV-1, from Rex-pME-FLAG) (protein, UniProt P0C205 1-189)
# chain: T4 sequence
# B2: HA-UPF3A (protein, UniProt Q9H1J1 1-476)
# chain: MRSEKEGAGGLRAAVAARGPSGREKLSALEVQFHRDSQQQEAETPPTSSSGCGGGAGKPREEKRTALSKVVIRRLPPGLTKEQLEEQLRPLPAHDYFEFFAADLSLYPHLYSRAYINFRNPDDILLFRDRFDGYIFLDSKGLEYPAVVEFAPFQKIAKKKLRKKDAKTGSIEDDPEYKKFLETYCVEEEKTSANPETLLGEMEAKTRELIARRTTPLLEYIKNRKLEKQRIREEKREERRRRELEKKRLREEEKRRRREEERCKKKETDKQKKIAEKEVRIKLLKKPEKGEEPTTEKPKERGEEIDTGGGKQESCAPGAVVKARPMEGSLEEPQETSHSGSDKEHRDVERSQEQESEAQRYHVDDGRRHRAHHEPERLSRRSEDEQRWGKGPGQDRGKKGSQDSGAPGEAMERLGRAQRCDDSPAPRKERLANKDRPALQLYDPGARFRARECGGNRRICKAEGSGTGPEKREEAE
# B3: Rex (from the SRα-Rex plasmid) (protein, UniProt P0C205 1-189)
# chain: T4 sequence
# B4: ECFP-Rex (protein, UniProt P0C205 1-189)
# chain: T4 sequence
# B5: Upf1 (endogenous) (protein, UniProt Q92900 1-1129)
# chain: MSVEAYGPSSQTLTFLDTEEAELLGADTQGSEFEFTDFTLPSQTQTPPGGPGGPGGGGAGGPGGAGAGAAAGQLDAQVGPEGILQNGAVDDSVAKTSQLLAELNFEEDEEDTYYTKDLPIHACSYCGIHDPACVVYCNTSKKWFCNGRGNTSGSHIVNHLVRAKCKEVTLHKDGPLGETVLECYNCGCRNVFLLGFIPAKADSVVVLLCRQPCASQSSLKDINWDSSQWQPLIQDRCFLSWLVKIPSEQEQLRARQITAQQINKLEELWKENPSATLEDLEKPGVDEEPQHVLLRYEDAYQYQNIFGPLVKLEADYDKKLKESQTQDNITVRWDLGLNKKRIAYFTLPKTDSGNEDLVIIWLRDMRLMQGDEICLRYKGDLAPLWKGIGHVIKVPDNYGDEIAIELRSSVGAPVEVTHNFQVDFVWKSTSFDRMQSALKTFAVDETSVSGYIYHKLLGHEVEDVIIKCQLPKRFTAQGLPDLNHSQVYAVKTVLQRPLSLIQGPPGTGKTVTSATIVYHLARQGNGPVLVCAPSNIAVDQLTEKIHQTGLKVVRLCAKSREAIDSPVSFLALHNQIRNMDSMPELQKLQQLKDETGELSSADEKRYRALKRTAERELLMNADVICCTCVGAGDPRLAKMQFRSILIDESTQATEPECMVPVVLGAKQLILVGDHCQLGPVVMCKKAAKAGLSQSLFERLVVLGIRPIRLQVQYRMHPALSAFPSNIFYEGSLQNGVTAADRVKKGFDFQWPQPDKPMFFYVTQGQEEIASSGTSYLNRTEAANVEKITTKLLKAGAKPDQIGIITPYEGQRSYLVQYMQFSGSLHTKLYQEVEIASVDAFQGREKDFIILSCVRANEHQGIGFLNDPRRLNVALTRARYGVIIVGNPKALSKQPLWNHLLNYYKEQKVLVEGPLNNLRESLMQFSKPRKLVNTINPGARFMTTAMYDAREAIIPGSVYDRSSQGRPSSMYFQTHDQIGMISAGPSHVAAMNIPIPFNLVMPPMPPPGYFGQANGPAAGRGTPKGKTGRGGRQKNRFGLPGPSQTNLPNSQASQDVASQPFSQGALTQGYISMSQPSQMSQPGLSQPELSQDSYLGDEFKSQIDVALSQDSTYQGERAYQHGGVTGLSQY
# B6: SMG5 (endogenous) (protein, UniProt Q9UPR3 1-1016)
# chain: MSQGPPTGESSEPEAKVLHTKRLYRAVVEAVHRLDLILCNKTAYQEVFKPENISLRNKLRELCVKLMFLHPVDYGRKAEELLWRKVYYEVIQLIKTNKKHIHSRSTLECAYRTHLVAGIGFYQHLLLYIQSHYQLELQCCIDWTHVTDPLIGCKKPVSASGKEMDWAQMACHRCLVYLGDLSRYQNELAGVDTELLAERFYYQALSVAPQIGMPFNQLGTLAGSKYYNVEAMYCYLRCIQSEVSFEGAYGNLKRLYDKAAKMYHQLKKCETRKLSPGKKRCKDIKRLLVNFMYLQSLLQPKSSSVDSELTSLCQSVLEDFNLCLFYLPSSPNLSLASEDEEEYESGYAFLPDLLIFQMVIICLMCVHSLERAGSKQYSAAIAFTLALFSHLVNHVNIRLQAELEEGENPVPAFQSDGTDEPESKEPVEKEEEPDPEPPPVTPQVGEGRKSRKFSRLSCLRRRRHPPKVGDDSDLSEGFESDSSHDSARASEGSDSGSDKSLEGGGTAFDAETDSEMNSQESRSDLEDMEEEEGTRSPTLEPPRGRSEAPDSLNGPLGPSEASIASNLQAMSTQMFQTKRCFRLAPTFSNLLLQPTTNPHTSASHRPCVNGDVDKPSEPASEEGSESEGSESSGRSCRNERSIQEKLQVLMAEGLLPAVKVFLDWLRTNPDLIIVCAQSSQSLWNRLSVLLNLLPAAGELQESGLALCPEVQDLLEGCELPDLPSSLLLPEDMALRNLPPLRAAHRRFNFDTDRPLLSTLEESVVRICCIRSFGHFIARLQGSILQFNPEVGIFVSIAQSEQESLLQQAQAQFRMAQEEARRNRLMRDMAQLRLQLEVSQLEGSLQQPKAQSAMSPYLVPDTQALCHHLPVIRQLATSGRFIVIIPRTVIDGLDLLKKEHPGARDGIRYLEAEFKKGNRYIRCQKEVGKSFERHKLKRQDADAWTLYKILDSCKQLTLAQGAGEEDPSGMVTIITGLPLDNPSVLSGPMQAALQAAAHASVDIKNVLDFYKQWKEIG
# B7: Upf3B (endogenous) (protein, UniProt Q9BZI7 1-483)
# chain: T2 sequence
# B8: Upf3A (endogenous) (protein, UniProt Q9H1J1 1-476)
# chain: B2 chain
# What was measured:
# [1] = target: T1, GST-UPF1 (wild type) (human); assay: pull-down
# GST-UPF2 = GST-UPF2 (UniProt Q9HAU5); assay: pull-down
# His-UPF3B = target: T2, His-UPF3B; assay: pull-down
# EYFP-UPF1 (human) = target: T3, EYFP-UPF1 (human); assay: FRET or BRET
# GST-Rex (HTLV-1) = target: T4, GST-Rex (HTLV-1); assay: pull-down
molecule,measurement,setting,value
p21Rex (Rex lacking N-terminal aa1-78) (from UniProt P0C205-1 79-189) (domain or fragment),binding,[1],no binding
B1,binding,[1],binds
B2,binding,GST-UPF2,binds
B3,binding,His-UPF3B,binds
B4,binding,EYFP-UPF1 (human),binds
B5,binding,GST-Rex (HTLV-1),binds
B6,binding,GST-Rex (HTLV-1),binds
B7,binding,GST-Rex (HTLV-1),binds
B8,binding,GST-Rex (HTLV-1),no binding
